# Data reported in PubChem BioAssay (NCATS).
# Inconclusive results, whose numbers are uncertain, are shown with a selection of clear calls. For part of these data: Potencies of inconclusive entries are doubtful fits and often do not repeat. For part of these data: “Side channel” marks fits to a control or component signal instead of the main read-out. Calls of active or inactive are those of the source. Unless noted, calls follow the shape of the dose curve; as a rule, active = well fitted curve in the direction sought with a large enough effect; inconclusive = small, poorly fitted or top-dose-only effect, or another doubt; inactive = no such curve, though single readings can be large; an effect the other way counts as inactive or inconclusive.
# Key:
# [1] = High Content Imaging Cell-Based qHTS for Inhibitors of the mTORC1 Signaling Pathway in MEF Cells (AID 2667); conditions: series mostly up to 38.3 µM; also: potency is read from the fitted curve at half-maximal effect
# In short: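 WT MEFs (Tsc2-/-, p53-/- re-expressing Tsc2), in DMEM + 10% FBS, were treated with compound for 24 h at 37 C. Cells were then fixed and stained for phospho-rpS6 Ser235/236 with propidium iodide as cell count. Values are % positive cells, with thresholds set against rapamycin-treated cells.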
# [2] = Stat Signaling Pathway (AID 446; active = well fitted curve in either direction with a large enough effect, not every such curve was filed as active; inconclusive = small, poorly fitted or top-dose-only effect, or another doubt;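 also: ME-180 cervical cancer cells given 40 pM IL-6 alongside compound; SIE-controlled beta-lactamase reporter measured as 460/530 nm FRET emission ratio; top concentration of the series differs between compounds; % is scaled to controls: 0 for no effect and ±100 for the full control effect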); conditions: ME-180 SIE beta-lactamase reporter, IL-6 stimulated, 5 h; at 38 µM (top of the series)
# In short: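 IL-6/STAT signaling read in ME-180 cells via an SIE beta-lactamase reporter. Stimulus was 40 pM IL-6 (its AC50) for 5 hrs, so both activation and inhibition register.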
# [3] = qHTS Assay for Identification of Small Molecule Agonists for Hypoxia Response Element Signaling Pathway (AID 914; active = well fitted activation curve with a large enough effect in the signal ratio, with a control signal flat, not every such curve was filed as active; inconclusive = small, poorly fitted or top-dose-only effect, or effect the other way, or a change in a side signal; the % refers to the signal ratio; also: potency is read from the fitted curve at half-maximal effect); conditions: ME-180 HRE-bla reporter, beta-lactamase ratio, CoCl2, 17 h; activation: active compounds read high
# In short: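 Compounds in a titration series were added to ME-180 reporter cells alongside an EC50 level of CoCl2. After 17 hours, beta-lactamase activity was read as the 460nm/530nm emission ratio of CCF4, giving AC50 values.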
# [4] = qHTS Assay for Identification of Small Molecule Agonists for Thrombopoietin (TPO) Signaling Pathway (AID 917); conditions: TPO signaling pathway reporter cells, agonist qHTS, stimulated with TPO at its EC50; series mostly up to 38.5 µM; also: potency is read from the fitted curve at half-maximal effect
# In short: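 Murine Ba/F3 cells expressing human TPO receptor and GPIIb-promoter luciferase, IL-3-starved overnight, given compound plus TPO at 26 pM (EC50). After 24 h at 37 C, 5% CO2, luminescence read.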
# [5] = molecular target: Calcium and integrin-binding protein 1 (Homo sapiens) (UniProt Q99828); experiment: Validation qHTS for Identification of Calcium Integrin Binding protein 1 (CIB1) Competitor (AID 1508618); conditions: CIB1-GST / FITC-alphaIIb peptide fluorescence polarization; series mostly up to 114 µM; also: potency is read from the fitted curve at half-maximal effect
# In short: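 In this qHTS validation, the LOPAC set (up to 114 uM) was tested for blocking CIB1 binding to a fluorescein-tagged alphaIIb peptide, with FP detection at 480/540 nm.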
# [6] = AP1 Signaling Pathway (AID 357; active = well fitted curve in either direction with a large enough effect, not every such curve was filed as active; inconclusive = small, poorly fitted or top-dose-only effect, or another doubt;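 also: ME-180 reporter cells stimulated with EGF at its EC50 level; top concentration of the series differs between compounds; % is scaled to controls: 0 for no effect and ±100 for the full control effect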); conditions: ME-180 (cervical carcinoma) AP-1-bla reporter, EGF-induced, beta-lactamase ratio, 5 h; at 38 µM (top of the series)
# In short: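 AP-1-bla ME-180 cells, Opti-MEM + 0.5% dialyzed FBS, plated overnight 37 °C. Cpd titration + EC50 EGF, 5 h 37 °C. CCF4 2.5 h RT; ex 405, em 460/530 ratio → %activity, AC50.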
# [7] = molecular target: Mitogen-activated protein kinase 10 (Mus musculus) (UniProt Q61831); experiment: JNK3 AlphaScreen Assay (AID 530; active = well fitted curve in either direction with a large enough effect, not every such curve was filed as active; inconclusive = small, poorly fitted or top-dose-only effect, or another doubt); conditions: JNK3 lysate, c-Jun phosphorylation; activity change, negative = inhibition: at 57.1 µM (top of the series)
# In short: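 qHTS format: compounds tested as titrations against IL-1beta/TNF-alpha-activated HepG2 lysate JNK3 with biotin-GST-cJun substrate and 10 uM ATP at room temperature. Loss of anti-phospho-cJun AlphaScreen signal indicates inhibition.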
# [8] = molecular target: Muscarinic acetylcholine receptor M1 (Rattus norvegicus) (UniProt P08482); experiment: qHTS Assay for Antagonists of Acetylcholine Muscarinic M1 Receptor: Kinetic Measurement of Intracellular Calcium Response (AID 943); conditions: M1-expressing cells, kinetic intracellular calcium fluorescence; series mostly up to 35.3 µM; also: potency is read from the fitted curve at half-maximal effect; nearly all actives have a fitted effect of over 75% in size
# In short: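 Intracellular calcium flux, recorded with Fluo-4 in a kinetic plate reader, served as signal; the response to carbachol at EC80 (100 nM final) was taken as maximal over minimal fluorescence after a 10 min compound pre-incubation in rat M1-CHO cells.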
# [9] = Quantitative high throughput screen for delayed death inhibitors of the malarial parasite plastid, 48 hour incubation (AID 488752); conditions: Plasmodium falciparum growth; series mostly up to 28.7 µM; also: potency is read from the fitted curve at half-maximal effect; nearly all actives have a fitted effect of over 65% in size
# In short: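 One parasite generation (48 h, 37 C, 5% CO2) of luciferase-reporter P. falciparum in erythrocytes is run with test compound; decreased luminescence indicates inhibited growth.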
# [10] = molecular target: Voltage-gated inwardly rectifying potassium channel KCNH2 (Homo sapiens) (UniProt Q12809); experiment: qHTS Assay for Small Molecule Inhibitors of the Human hERG Channel Activity (AID 588834); conditions: U2OS BacMam hERG, FluxOR thallium flux fluorescence; series mostly up to 46.1 µM;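 also: potency is read from the fitted curve at half-maximal effect; lower thallium flux fluorescence means stronger hERG block; nearly all actives have a fitted effect of over 50% in size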
# In short: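 U2OS cells BacMam-transduced with hERG, 2000 cells/well, compound ~10 min at 37 °C before stimulation buffer. FluxOR thallium flux fluorescence read kinetically on FDSS; decrease indicates block; AC50 from Hill fits.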
# [11] = test system: PC26; experiment: qHTS profiling for inhibitors of Plasmodium falciparum proliferation (AID 504749); also: potency is read from the fitted curve at half-maximal effect; nearly all actives have a fitted effect of over 60% in size; conditions: P. falciparum in erythrocytes, SYBR Green DNA, 72 h; series mostly up to 28.7 µM
# In short: (§1)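 Readout was DNA-dye fluorescence from lysed cultures, ex 485/em 535 nm. Parasitized red cells had grown 72 h with compound; data scaled between 0.29 uM artemisinin and DMSO wells and corrected using vehicle-only plates.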
# [12] = qHTS for differential inhibitors of proliferation of Plasmodium falciparum line W2 (AID 1883); conditions: Potency: Plasmodium falciparum W2 proliferation inhibition; series mostly up to 28.7 µM;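 also: parasites grown with compound for 72 h before lysis and staining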; also: potency is read from the fitted curve at half-maximal effect;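 as to activity change, negative = inhibition: 0% = vehicle wells and -100% = control inhibitor wells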
# [13] = qHTS Validation Assay to Find Inhibitors of Chronic Active B-Cell Receptor Signaling (AID 485345; active = well fitted curve in the direction sought with a large enough effect in the main read-out, with a control signal flat, not every such curve was filed as active; inconclusive = small, poorly fitted or top-dose-only effect, or effect the other way, or a change in a side signal; inactive = no such curve, though single readings can be large or run the other way;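 also: 0% = untreated basal cells and 100% = 10 µM MG-132 proteasome inhibitor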); conditions: ABC-DLBCL cells, chronic BCR signaling reporter; activity change: CBG luciferase, at 46.1 µM (top of the series)
# In short: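 TMD8 ABC-DLBCL cells stably carrying doxycycline-inducible IkappaBalpha–green luciferase fusion plus unfused red luciferase; compounds 46 uM to 3 nM, 4 h at 37C with doxycycline. Corrected green/red luminescence ratio normalized to 10 uM MG-132 and basal cell wells; curves fitted.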
# [14] = test system: 7G8; experiment: qHTS profiling for inhibitors of Plasmodium falciparum proliferation (AID 504749); also: potency is read from the fitted curve at half-maximal effect; nearly all actives have a fitted effect of over 60% in size; conditions: P. falciparum in erythrocytes, SYBR Green DNA, 72 h; series mostly up to 28.7 µM
# In short: as §1
# [15] = test system: CP286; experiment: as above; conditions: P. falciparum in erythrocytes, SYBR Green DNA, 72 h; series mostly up to 28.7 µM
# In short: as §1
# [16] = test system: CP335; experiment: as above; conditions: P. falciparum in erythrocytes, SYBR Green DNA, 72 h; series mostly up to 28.7 µM
# In short: as §1
# [17] = test system: GB4; experiment: as above; conditions: P. falciparum in erythrocytes, SYBR Green DNA, 72 h; series mostly up to 28.7 µM
# In short: as §1
# [18] = test system: W2; experiment: as above; conditions: P. falciparum in erythrocytes, SYBR Green DNA, 72 h; activity, negative = inhibition: at 28.7 µM (top of the series)
# In short: as §1
# Tags tell the direction and shape of the fitted curve or compound fluorescence and quenching.
# Sequence of UniProt Q99828 (Q99828 whole entry, looked up): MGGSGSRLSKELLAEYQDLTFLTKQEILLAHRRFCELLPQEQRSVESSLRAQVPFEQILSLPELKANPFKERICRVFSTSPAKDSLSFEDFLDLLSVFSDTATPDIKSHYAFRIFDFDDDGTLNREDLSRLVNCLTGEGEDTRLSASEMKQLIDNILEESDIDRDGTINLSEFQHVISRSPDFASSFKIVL
# Sequence of UniProt P08482 (P08482 whole entry, looked up): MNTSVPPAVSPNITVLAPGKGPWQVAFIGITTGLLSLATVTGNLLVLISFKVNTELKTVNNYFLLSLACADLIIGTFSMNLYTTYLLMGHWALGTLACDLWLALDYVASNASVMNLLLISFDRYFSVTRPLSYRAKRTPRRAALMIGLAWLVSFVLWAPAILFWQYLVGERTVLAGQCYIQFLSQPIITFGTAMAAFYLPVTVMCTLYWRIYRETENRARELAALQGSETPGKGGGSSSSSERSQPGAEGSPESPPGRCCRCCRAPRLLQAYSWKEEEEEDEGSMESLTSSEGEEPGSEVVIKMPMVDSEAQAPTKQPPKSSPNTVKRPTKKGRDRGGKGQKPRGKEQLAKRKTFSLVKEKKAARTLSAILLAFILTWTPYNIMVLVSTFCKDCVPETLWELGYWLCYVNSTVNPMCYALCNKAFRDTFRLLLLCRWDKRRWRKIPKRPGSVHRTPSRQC
# Sequence of UniProt Q12809 (Q12809 whole entry, looked up): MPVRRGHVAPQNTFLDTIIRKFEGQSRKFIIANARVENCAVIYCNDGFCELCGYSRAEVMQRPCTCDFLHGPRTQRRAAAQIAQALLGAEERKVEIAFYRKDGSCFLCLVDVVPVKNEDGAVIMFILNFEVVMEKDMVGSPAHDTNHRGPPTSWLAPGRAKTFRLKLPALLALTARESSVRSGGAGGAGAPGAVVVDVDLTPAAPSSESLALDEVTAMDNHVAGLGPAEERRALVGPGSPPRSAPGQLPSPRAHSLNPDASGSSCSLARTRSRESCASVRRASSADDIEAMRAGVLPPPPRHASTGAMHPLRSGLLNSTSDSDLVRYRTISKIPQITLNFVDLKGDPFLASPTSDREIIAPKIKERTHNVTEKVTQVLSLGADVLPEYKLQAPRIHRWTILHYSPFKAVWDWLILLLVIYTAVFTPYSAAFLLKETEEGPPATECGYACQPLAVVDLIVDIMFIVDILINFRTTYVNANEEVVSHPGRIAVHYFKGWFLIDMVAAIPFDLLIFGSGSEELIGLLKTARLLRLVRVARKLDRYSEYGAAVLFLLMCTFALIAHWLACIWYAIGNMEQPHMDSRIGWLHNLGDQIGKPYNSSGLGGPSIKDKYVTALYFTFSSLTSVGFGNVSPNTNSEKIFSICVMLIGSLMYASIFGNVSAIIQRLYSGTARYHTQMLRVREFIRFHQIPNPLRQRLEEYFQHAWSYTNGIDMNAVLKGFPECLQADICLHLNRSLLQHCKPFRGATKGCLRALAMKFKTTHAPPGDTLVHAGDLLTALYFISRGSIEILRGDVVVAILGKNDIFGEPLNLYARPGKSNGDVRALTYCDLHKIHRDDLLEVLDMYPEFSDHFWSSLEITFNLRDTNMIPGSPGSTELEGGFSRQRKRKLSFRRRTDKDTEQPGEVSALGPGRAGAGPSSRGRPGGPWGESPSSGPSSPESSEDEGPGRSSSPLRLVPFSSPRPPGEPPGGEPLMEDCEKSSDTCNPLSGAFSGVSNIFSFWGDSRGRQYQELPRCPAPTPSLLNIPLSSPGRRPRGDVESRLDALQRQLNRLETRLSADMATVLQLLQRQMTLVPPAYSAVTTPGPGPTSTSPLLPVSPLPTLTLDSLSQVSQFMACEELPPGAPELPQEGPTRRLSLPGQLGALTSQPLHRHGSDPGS
structure (smiles),measurement,setting,value
CC(C)(C)[C@]1(O)CCN2C[C@H]3c4ccccc4CCc4cccc(c43)[C@@H]2C1,Potency,[1],"inconclusive: 13.1 µM [falling, single point]"
O=C(N[C@@H](Cc1ccccc1)C(=O)CCl)OCc1ccccc1,"activity, negative = inhibition",[2],active: -59.3%
same,Potency,[3],"inconclusive: 25.1 µM [cytotoxic, side channel, single point]"
same,Potency,[4],"inconclusive: 2.51 µM [inhibitor, full curve]"
same,Potency,[1],active: 5.21 µM
same,Potency,[5],"inconclusive: 10 µM [inhibitor, full curve]"
CC(C)(C)c1cc(/C=C(\C#N)C(N)=S)cc(C(C)(C)C)c1O,"activity change, negative = inhibition",[6],inconclusive: -30.2% [inhibitor]
same,"activity, negative = inhibition",[2],inconclusive: -65.6% [inhibitor]
same,Potency,[7],"inconclusive: 12.6 µM [inhibitor, partial curve, poor fit]"
same,Potency,[8],"inconclusive: 0.0316 µM [inhibitor, full curve, poor fit]"
same,Potency,[1],"inconclusive: 26.1 µM [falling, single point]"
same,Potency,[9],active: 8.28 µM
same,Potency,[10],active: 11.2 µM
CCCCCCCCCCCCCCCCCCOC[C@H](COP(=O)([O-])OCC[N+](C)(C)C)OC,Potency,[11],"inconclusive: 13.5 µM [inhibitor, single point]"
O=c1oc(Cl)c(Cl)c2ccccc12,"activity change, negative = inhibition",[6],inconclusive: -109% [inhibitor]
same,"activity, negative = inhibition",[2],active: 22.3%
same,Potency,[5],"inconclusive: 31.6 µM [inhibitor, partial curve]"
S=C(S)OC1CC2CC1C1CCCC21 (stereo unspecified),Potency,[12],inactive
same,activity change,[13],inconclusive: -38.1%
same,Potency,[10],"inconclusive: 20 µM [inhibitor, single point]"
CC12C(=O)OC(=O)C1(C)C1CCC2O1 (stereo unspecified),Potency,[9],active: 4.15 µM
COc1cc(/C=C(\C#N)C(=O)Nc2nnc(C(F)(F)F)s2)ccc1OCc1ccc(C(F)(F)F)cc1C(F)(F)F,Potency,[5],"inconclusive: 5.62 µM [inhibitor, full curve, poor fit]"
C=CC(=O)c1ccc(CCCCCC)cc1,activity change,[13],inconclusive: -32.7%
CN(C)c1nc(N)c(C(=O)N=C(N)N)nc1Cl,Potency,[7],"inconclusive: 12.6 µM [activator, partial curve, poor fit]"
same,Potency,[8],"inconclusive: 5.62 µM [inhibitor, partial curve, poor fit]"
CCCCC/C=C\CC(O)/C=C/c1cccc(CC(O)CCCCO)n1 (stereo unspecified),Potency,[12],"inconclusive: 15.8 µM [inhibitor, partial curve, poor fit]"
CN1C2CCC1CC(OC(c1ccccc1)c1ccccc1)C2 (stereo unspecified),Potency,[9],"inconclusive: 18.5 µM [inhibitor, single point]"
same,Potency,[14],active: 4.47 µM
same,Potency,[15],"inconclusive: 10 µM [inhibitor, partial curve]"
same,Potency,[16],"inconclusive: 8.49 µM [inhibitor, partial curve]"
same,Potency,[17],"inconclusive: 9.53 µM [inhibitor, partial curve, poor fit]"
same,Potency,[11],"inconclusive: 5.36 µM [inhibitor, partial curve]"
same,Potency,[18],active: 1.51 µM
CCOC(=O)C1=C(C)NC(C)=C(C(=O)OCC)C1c1c(F)c(F)c(F)c(F)c1F,Potency,[1],"inconclusive: 20.7 µM [falling, partial curve, poor fit]"
same,activity change,[13],inconclusive: -36.4%
same,Potency,[5],"inconclusive: 6.31 µM [inhibitor, full curve]"
